The campaign covered roughly 45,000 compounds. About 200 (0.44%) were called active. Roughly 7% stayed inconclusive and do not appear here. Calls come from the whole dose curve; as a rule, active = well fitted activation curve with a large enough effect; inconclusive = small, poorly fitted or top-dose-only effect; inactive = no such curve, though single readings can be large or run the other way. Some of the results follow.
Assay: qHTS of TDP-43 Inhibitors: NCGC Sytravon Library Screen; note: 0% is about no effect; nearly all actives have a fitted effect of over 55% in size
Settings: yeast TDP-43 toxicity rescue, BacTiter-Glo growth, 24 h; series mostly up to 46.1 µM; growth rescue (activation): at the top concentration
In short: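 TDP-43-expressing yeast, pregrown in raffinose, seeded at OD600 0.02 in galactose medium with compound for 24 hr at 30 deg C. Growth read by BacTiter-Glo luminescence, so rescue of toxicity appears as activation.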

Structure (SMILES) | growth rescue (activation)
Cc1ccc(NC2=NCC(Cc3ccc(Br)cc3)S2)cc1 (stereo unspecified) | inactive: 8.16%
C/C(CCc1ccc2c(c1)OCO2)=N\NC(=O)c1ccccc1Br | inactive: 5.57%
O=C(/C=C/c1ccccc1)OCCCN=C1NS(=O)(=O)c2ccccc21 | inactive: -2.48%
CCOc1ccc(NC(=O)N2CC=C(n3c(=O)[nH]c4ccccc43)CC2)cc1 | inactive: 14.8%
COc1ccccc1NC(=O)CN1CCN(C(=O)C2CCCO2)CC1 (stereo unspecified) | inactive: 2%
CSc1nc2ccccc2nc1N(C)S(=O)(=O)c1ccc(C)cc1 | inactive: -7.43%
O=c1[nH]nc(-c2ccccc2)c2ccccc12 | inactive: 10.6%
CNC(=O)c1[nH]nc2c1CCc1cc(OC)ccc1-2 | inactive: 6.99%
CC1(C(=O)NS(=O)(=O)Cc2cccc(Cl)c2)CCN1C(=O)C1(c2ccc(Cl)cc2)CCC1 (stereo unspecified) | inactive: -12.4%
Cc1ccc(C(=O)NCCc2ccccn2)cc1S(=O)(=O)N1CCOCC1 | inactive: 9.58%
COc1ccccc1NC(=O)c1nc(S(=O)(=O)Cc2ccccc2)ncc1Cl | inactive: 12.9%
O=C(NCCCl)Nc1ccccc1NS(=O)(=O)c1cccs1 | inactive: 1.73%
Cc1ccc(S(=O)(=O)Nc2cc(C(F)(F)F)ccc2N2CCOCC2)c(C)c1 | inactive: -36.9%
CN(C)Cc1csc(NC(=O)Nc2ccccc2-c2ccccc2)n1 | inactive: 6.31%
CN(CC(=O)N1CCCC1)S(=O)(=O)c1cccc(Cl)c1 | inactive: 0.323%
O=C1NC(=S)N/C1=C/C=C/c1ccccc1 | inactive: 2.66%
COc1ccc(CCn2c(NN=C3CCCCC3)nc3c2c(=O)[nH]c(=O)n3C)cc1 | inactive: 1.7%
CC(=C/c1ccco1)/C=N/NC(=O)c1nnn(-c2nonc2N)c1CN(C)C | inactive: 6.15%
COc1ccccc1C(=O)ON=C1c2ccccc2-c2ccccc21 | inactive: -2.69%
CCOc1ccc(CC(=O)NNC(=S)NC2CCCCC2)cc1OCC | inactive: -13.6%
CCCCOC(=O)N1CCOCCOCCOCCOCC1 | inactive: 6.36%
O=C(CSc1nc(-c2ccco2)cc(C(F)(F)F)n1)NN1CCOCC1 | inactive: 6.35%
COc1ccc(C(=O)Nc2ccc(NC(=O)c3ccccc3F)cn2)cc1 | inactive: 0.315%
CCOc1ccccc1/C=C/c1nc2ccccc2[nH]c1=O | inactive: 3.37%

Structure (SMILES) | growth rescue (activation)
COc1ccccc1-c1nnc(SCC(=O)NC2CCCCC2)n1C | inactive: 6.31%
Cn1c(N)nc2nc(CCc3ccccc3)c(=O)[nH]c2c1=O | inactive: -3.73%
Cc1nn(-c2ccccc2)c(C)c1S(=O)(=O)O | inactive: -2.35%
O=C(COC(=O)c1ccc(F)cc1)Nc1nc2ccc([N+](=O)[O-])cc2s1 | inactive: -12.3%
COC(=O)COc1ccc(NC(=O)c2ccco2)cc1 | inactive: 1.18%
CCc1ccc(C(C)NC(=O)Cc2ccc(F)cc2)cc1 (stereo unspecified) | inactive: 18.6%
COc1ccc(NC(=O)CO/N=C2\CCCc3nonc32)cc1 | inactive: 9.46%
COc1ccc(NC(=O)Nc2ccc(C)cc2Br)c(OC)c1 | inactive: -10.3%
O=C(CSc1nnc(-c2ccccn2)n1Cc1ccccc1)N1CCOCC1 | inactive: -5.83%
CCc1nc2c(OCc3ccc(OC(F)F)cc3)cccn2c1N(C)C(=O)c1ccc(OC)cc1 | inactive: -7.66%
CC(Nc1nc(-c2ccccc2O)nc2ccccc12)c1ccccc1 (stereo unspecified) | inactive: 3.07%
O=C(Cc1ccc2c(c1)OCO2)NN=Cc1ccc([N+](=O)[O-])o1 | inactive: 4.48%
FC(F)(F)c1cccc(Cc2noc(CN3CCC(N4CCCCC4)CC3)n2)c1 | inactive: 14.2%
O=C(CNC(=O)C1CC1)Nc1ccc(F)c(F)c1F | inactive: 2.9%
C=CCNc1ncnc2c1[nH]c1ccccc12 | inactive: 7.81%
O=[N+]([O-])c1ccc2c(c1)C=C1CCCCC1(N1CCCCC1)O2 (stereo unspecified) | inactive: 17.5%
Cc1ccccc1NC(=O)c1sc(NC(=O)COc2ccccc2)c(C#N)c1C | inactive: 7.42%
CC(C)Oc1cc(NC(=O)CS(=O)CC(=O)N(C)C)c(Cl)cc1Cl (stereo unspecified) | inactive: -10.3%
CCc1nc2ccc(C(=O)NCCOc3ccc(OC)cc3)cn2c1N(CC)Cc1ccc(OC)c(OC)c1 | inactive: -3.56%
COc1ccc(NC(=O)CCN2C(=O)C3CC=CCC3C2=O)cc1S(=O)(=O)N1CCCCC1 (stereo unspecified) | inactive: 0.421%
Cc1ccc(C(=O)N2CCc3ccccc32)cc1[N+](=O)[O-] | inactive: 7.32%
COc1ccc(NC2CCCN(C(=O)CCc3scnc3C)C2)cc1 (stereo unspecified) | inactive: -3.15%
O=C(CCCNC(=O)c1ccc(Cl)cc1)NCc1ccccc1F | inactive: 15.6%
CCc1nnc(NC(=O)c2ccc(S(=O)(=O)N3CCc4ccccc4C3)cc2)s1 | inactive: 7.84%

Structure (SMILES) | growth rescue (activation)
CCOc1ccc(S(=O)(=O)N2CCCC(C(=O)NCc3ccccn3)C2)cc1C (stereo unspecified) | inactive: -5.67%
Cc1ccc(-c2nc(N)n(S(C)(=O)=O)n2)cc1 | inactive: 5.48%
CCOC(=O)c1cnc2c(-c3cccc(Br)c3)cnn2c1C | inactive: -9.87%
O=C(Nc1cccc(NC(=O)c2cccs2)c1)c1ccc([N+](=O)[O-])o1 | inactive: 29.5%
NC(c1csc(NC(=O)Nc2ccccc2Cl)n1)C1CCCCC1 (stereo unspecified) | inactive: -4.26%
COc1ccc(OC)c(CCNC(=O)c2ccc(CS(=O)(=O)c3ccc(Br)cc3)o2)c1 | inactive: 3.84%
COc1ccc(SN=C2C(C)=CC(=O)C=C2C)cc1 | inactive: 21.9%
CC1(C(=O)NC2CCN(Cc3ccccc3)CC2)CCN1CCc1ccccc1 (stereo unspecified) | inactive: -2.93%
N#Cc1c2n(c(=S)n(-c3ccccc3)c1=O)CCCCC2 | inactive: -0.403%
CC(C)(C)C(=O)NC1(C(F)(F)F)NC(=O)N(CCc2ccccc2)C1=O (stereo unspecified) | inactive: 5.93%
Cc1ccc(S(=O)(=O)N2CCN(C(=O)CCC(=O)N3CCc4ccccc43)CC2)cc1 | inactive: 13.7%
CCCn1c(-c2ccc[nH]c2=O)nc2cc(C)c(C)cc21 | inactive: 6.48%
CCC(C)NC(=O)CO/N=C/c1ccccc1OC(F)F (stereo unspecified) | inactive: 6.14%
O=C(N/N=C/c1ccccc1O)c1cc[n+]([O-])cc1 | inactive: -21.9%
c1ccc(-n2cc(CN3CCC(N4CCOCC4)CC3)c(-c3ccc4c(c3)OCO4)n2)cc1 | inactive: -12.9%
Cc1ccc2c(c1)N(CC(=O)N1CCOCC1)C(=O)CO2 | inactive: 13.4%
Nc1ccc(C(=O)OCc2ccncc2)cc1[N+](=O)[O-] | inactive: 10.7%
CCN(CC(=O)NCc1ccc(F)cc1)C(=O)c1cccnc1SC | inactive: -14.3%
COc1ccc(OC)c(C2=C/C(=C/c3ccccn3)C(=O)O2)c1 | inactive: -14.5%
O=C(CCC1CCCCC1)NCc1cccs1 | inactive: 22.2%
Cc1cc(C(=O)NN=C2CC(=O)CC(C)(C)C2)c(C)o1 | inactive: 14.9%
Cc1cccc(C2c3[nH]c4ccccc4c3CCN2C(=O)CN2CCOC2=O)n1 (stereo unspecified) | inactive: 7.05%
COC(=O)c1sc(N)c(C(=O)OC)c1Cn1ncc(Cl)c(Cl)c1=O | inactive: 10.4%

Source: PubChem BioAssay AID1347073 (National Center for Advancing Translational Sciences (NCATS), 2019)
